Data taken from the supplement of paper PMC11417369.
± gives the standard deviation of the averaged measurements. The list shows a part of the results.

The sequences below were run on PfAP2-EXP AP2 domain (GST-tagged) (assay: gcPBM binding intensity (ln(normalized median fluorescence intensity)); higher = stronger DNA binding).
Outline: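 Binding intensity values are the highest Masliner-normalised natural-log median intensity among replicate spots of either probe orientation. The binding step lasted 1 h in 1× PBS with 1% milk, 0.2 mg/ml BSA, 0.5% salmon testes DNA and 0.03% Triton X-100, using GST-tagged P. falciparum DNA-binding domains expressed in E. coli on an Agilent 4 × 180k array of primer-extended double-stranded 36-bp intergenic genomic probes plus negative controls. Alexa488 anti-GST antibody and a 488 nm scan detected bound protein.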
With “TAATTTTTCTTATATAGTACACAAAAAGAAAATTAC [XGTACX_site6393]” the “gcPBM binding intensity (ln)” value was 8.61 ± 0.34. “ATATATATATATATATGTACATATATTTGTAATGTC [XGTACX_site8074]” was tested, and the “gcPBM binding intensity (ln)” value was 10.2 ± 0.43. In the case of “TTTATTATGTAAGCATGTACATGATGTATATATTTA [XGTACX_site5021]”, the “gcPBM binding intensity (ln)” value is reported as 8.58 ± 0.34. With “TATTTACAAATAAAAAGTACATAAACTAATATCTTT [XGTACX_site2181]” the “gcPBM binding intensity (ln)” value was 8.45 ± 0.29. “ATCTGTACAGTTTTTGCACACATATAAATAAAAAAA [CACACA_site9198]” was tested, and the “gcPBM binding intensity (ln)” value was 9.045 ± 0.007. In the case of “TATATTAGAAAGGATACACACATATATAAATATCTA [CACACA_site6411]”, the “gcPBM binding intensity (ln)” value is reported as 8.41 ± 0.29. “TTGTTTGTAAACAGATGTACATATAAAAATATATAT [XGTACX_site3370]” was tested, and the “gcPBM binding intensity (ln)” value was 8.46 ± 0.014. For “TAAATACTTATATGTACACACATATAGATATATATT [CACACA_site2553]”, the “gcPBM binding intensity (ln)” value was 8.27 ± 0.26. “ATATAAATAAATGTATGTACATATATTTATATGCAT [XGTACX_site4185]” was tested, and the “gcPBM binding intensity (ln)” value was 8.41 ± 0.3. For “ATTTTTTAAAATATTTGTACATATATAATGCATATA [XGTACX_site7026]”, the “gcPBM binding intensity (ln)” value was 8.65 ± 0.35. For “CACAGACACGGACACACACACACACCGATATATATA [CACACA_site4353]”, the “gcPBM binding intensity (ln)” value was 8.8 ± 0.35. With “ACATAATAAAAAAAACGTACAAATAGGTTTTTCATA [XGTACX_site6645]” the “gcPBM binding intensity (ln)” value was 8.51 ± 0.35. In the case of “GACTATTTTAATATTTTACACACCATGTAAAATATA [CACACA_site9050]”, the “gcPBM binding intensity (ln)” value is reported as 8.73 ± 0.38. With “TTTTTTTATTATTAAAGTACTAAAAAATGAAAACTG [XGTACX_site6758]” the “gcPBM binding intensity (ln)” value was 8.26 ± 0.18. For “TATAATAAAAAATGTACACACATAAGAAAATTTAAT [CACACA_site2901]”, the “gcPBM binding intensity (ln)” value was 8.86 ± 0.36. For “TGGGAATAAAAACACACACACACACCGATATATATA [CACACA_site5875]”, the “gcPBM binding intensity (ln)” value was 8.88 ± 0.39. For ATATATTAAAACCTAGTGCATTTGTACATATTTCAA, the “gcPBM binding intensity (ln)” value was 8.6 ± 0.24. In the case of “GCAGTCAAAAAGGAAAATATAAAAAAAGTATATGTG [GTGCAC_negctrl_site95]”, the “gcPBM binding intensity (ln)” value is reported as 8.47 ± 0.36. TTATACAGGACAATAGTGCACATAAATATATGTATA was tested, and the “gcPBM binding intensity (ln)” value was 9.07 ± 0.16. In the case of “AGGTTAAAACATATATATATATATATATATATATAT [XGTACX_negctrl_site333]”, the “gcPBM binding intensity (ln)” value is reported as 9.99 ± 0.81. In the case of “TATATATATATATACACACACACCGTCCGTGTTAAA [CACACA_site2979]”, the “gcPBM binding intensity (ln)” value is reported as 10.1 ± 0.38. For “AAGTAATTTATGCATACACACATATATAAATATGTA [CACACA_site7813]”, the “gcPBM binding intensity (ln)” value was 8.51 ± 0.37. For “ATATATATAAAACACACACACACATGTTTTAAAACT [CACACA_site78]”, the “gcPBM binding intensity (ln)” value was 8.88 ± 0.49. For “AAAAACTATTGTAGGACACACAAAATTCCAATTTTA [CACACA_site1701]”, the “gcPBM binding intensity (ln)” value was 8.47 ± 0.42. In the case of “AAATAAATGTTATGCATACACACTTTATACCTATTT [CACACA_site3779]”, the “gcPBM binding intensity (ln)” value is reported as 8.66 ± 0.47. For “TCTTTTATGTTTGTTTTTCCCTTTTTTTATGTTCCC [CACACA_negctrl_site1722]”, the “gcPBM binding intensity (ln)” value was 8.96 ± 0.64. “AATGAATGAATTATTTTGCGCTTATTATAGGACGAA [XGTACX_negctrl_site218]” was tested, and the “gcPBM binding intensity (ln)” value was 8.6 ± 0.41. “ATATATATTAGGTATTGTACTTATATGCATATAAGT [XGTACX_site2700]” was tested, and the “gcPBM binding intensity (ln)” value was 8.71 ± 0.33. “TATATATATATTTATACACACATTAGTGTATACATG [CACACA_site2950]” was tested, and the “gcPBM binding intensity (ln)” value was 9.6 ± 0.22. “CACAAAAAGAAACACACACACATATATATTTATTAT [CACACA_site3646]” was tested, and the “gcPBM binding intensity (ln)” value was 8.45 ± 0.49. With “GTAAGCACACATAGTTGTACATTAATAAAAATAAAT [XGTACX_site5876]” the “gcPBM binding intensity (ln)” value was 8.62 ± 0.38. “ATATGTATGAAGTGTACACATATATTGTATTTTCTT [CACACA_site5503]” was tested, and the “gcPBM binding intensity (ln)” value was 8.68 ± 0.4. For “TTCCTATAAAAAAACACACACATATAAATATATATA [CACACA_site2318]”, the “gcPBM binding intensity (ln)” value was 8.31 ± 0.29. For “TACAATTTAATATATACACACAAATAAATTATGCTT [CACACA_site856]”, the “gcPBM binding intensity (ln)” value was 8.07 ± 0.41. For “AACAATTTATATAAAGCACACATGGGAAGGAAATAC [CACACA_site1712]”, the “gcPBM binding intensity (ln)” value was 9.61 ± 0.38. With “TTATTGCATATTTACACACGTACTAATTTAAACAAG [CACACA_site971]” the “gcPBM binding intensity (ln)” value was 8.79 ± 0.37. For “AGAATATTTAAAAAAGGTACACAAAAACCAAAATAA [XGTACX_site8569]”, the “gcPBM binding intensity (ln)” value was 8.9 ± 0.42. With “ATATATGACAAATGTAGTACAAATTATTGTATCATA [XGTACX_site3675]” the “gcPBM binding intensity (ln)” value was 8.48 ± 0.31. In the case of “ATAAATTCATATATGAGTACTAAAAATATCTTTTTC [XGTACX_site5541]”, the “gcPBM binding intensity (ln)” value is reported as 8.47 ± 0.44. With “TATTAATACAGACACACACACACACCCAATAAAATA [CACACA_site243]” the “gcPBM binding intensity (ln)” value was 8.71 ± 0.69. “CAATGGTCATTTAGTTGTACTTAATTTTAAATCAAA [XGTACX_site4075]” was tested, and the “gcPBM binding intensity (ln)” value was 8.39 ± 0.22. In the case of “AAAAAAAACGAACACACACACATTCAATATAAAACA [CACACA_site6170]”, the “gcPBM binding intensity (ln)” value is reported as 8.65 ± 0.54. With “TTAAAAATATTATGTACACACATTTGAGATATTTGT [CACACA_site6953]” the “gcPBM binding intensity (ln)” value was 8.2 ± 0.35. For “TTTTTTGTTATTAAAAGTACATTATATGCTAGTTAA [XGTACX_site8747]”, the “gcPBM binding intensity (ln)” value was 8.22 ± 0.3.
